Data taken from patent US8309599B2, “Synthesis of FR901464 and analogs with antitumor activity” (University of Pittsburgh-Of The Commonwealth System of …, priority 2006, dated 2012).

Test system: MCF-7
Assay: cells
Conditions: Homo sapiens, MCF7, 120 h, read-out: GI50 against MCF-7

## CC(/C=C/[C@H]1OC(C)(C)C[C@@]2(CO2)[C@@H]1O)=C\C[C@@H]1O[C@H](C)[C@H](NC(=O)/C=C\[C@H](C)OC(=O)N2CCOCC2)C[C@@H]1C [meayamycin B, (2Z,4S)-4-[(morpholinylcarbonyl)oxy]-N-[(2R,3R,5S,6S)-tetrahydro-6-[(2E,4E)-5-[(3R,4R,5R)-4-hydroxy-7,7-dimethyl-1,6-dioxaspiro[2.5]oct-5-yl]-3-methyl-2,4-pentadien-1-yl]-2,5-dimethyl-2H-pyran-3-yl]-2-pentenamide]
  GI50: ~20 pM
